Laboratory results from the supplement of paper PMC10126150.
Sequences with one replicate were seen in a single cluster, so their values are uncertain.

Tested on: ATP
Experiment: switch fluorescence ratio, 500 uM ATP over buffer (Cy3 cluster intensity, sum of 5 cycles each) (fold (ratio)); higher = stronger signal-on switching upon ATP binding; sequences stand for … in TCGTCGGCAGCGTCAGATGTGTATAAGAGACAGTTTTTTTTTTTTTTTTTTTTTTTTT…TC
Details: aptamer strand: ATP DNA aptamer (quencher-CACCTGGGGGAGTATTGCGGAGGAAGG + anchor), 100 nM annealed; ATP concentration: 500 uM; one replicate
Method in brief: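 After annealing to 100 nM quencher-labelled ATP aptamer, Cy3-labelled switching-strand clusters on a modified Illumina MiSeq flow-cell were imaged in selection buffer. A second image followed after 15 min with 500 uM ATP at 22 °C, and five such buffer/ATP cycles were done, each separated by NaOH stripping and re-annealing. The fluorescence ratio, averaged per switch-domain sequence, is summed target-cycle over summed buffer-cycle Cy3 intensity per cluster, with clusters outside 100-1000 RFU excluded.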
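Note: ATP exposure 15 min at 22 °C before imaging.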

Sequence	switch fluorescence ratio
GGAGGGTAGT	0.993
TCATGTAGGC	1.06
TTCTGGCCCG	0.963
CCAGCTTACG	1.23
AAACGTGCGT	1.07
ATCCGAAATG	2.33
CAATTGCGC	1.03
GATGTTTAAC	1.02
CCAATTAAGC	0.993
TGCGCTACC	1.17
GCTTCATGGT	1
TCATGCCTGT	0.974
GCGTTATGGC	1.03
GGAACTTTGC	1.04
GGACGGAGCA	1.33
ATCTGCAAGT	1.19
GAAAACTTAT	1.06
CACGTTGTCG	1.08
CCCCGACCGA	1.2
GTTTACACCG	1.06
AATTTTCATG	1
CGCTGCTGAA	1.05
CCTGGGTATG	1.01

Sequence	switch fluorescence ratio
GCCCAAGCGA	1.1
TGAAATAGAC	1.03
TGGACGCGTT	0.995
AGGACTCTCT	0.998
TCAGATTGTG	1.01
GACATAAAGC	1.33
TCCTAGGATA	1.03
CGACGGGTCT	1.05
ATCTCCCGCT	1.39
TCAGCGTTC	1.07
CTTGCAGAGT	1.01
TACGTAACTG	1.3
ATGTTACGTA	1.05
ACAATAGACG	1.01
AGACGGATTA	0.988
TAGCGACGCG	1
AAAACTCTTG	1.02
ACGGGATGCA	1.08
AGTTATCAGT	1.05
GCGGAGGTAG	0.94
CAAGATGGCA	1.19
ATGCTCTGGT	0.95
TTCTGGAGTC	1.2

Sequence	switch fluorescence ratio
AGAGAAGAGC	0.964
GTCACATGAG	0.993
CAAGTTTTGG	1.03
CATTTTATGA	1.01
GATCAATTCT	1.02
GCTGTAGCAA	1.35
CGTGGGGTCG	0.991
CCTAGGATTT	1.03
GAGGGAAGC	0.984
ACAGGCGTTG	0.967
GACGGAGTGT	1.03
CCCTAGGCGG	1.12
TGTCCTAGTA	0.988
TAGATCCGGC	0.961
CGGGACTGTA	1.04
GCGTATCGGG	1.02
TTTCGATCCG	0.995
TTTCAGTGTG	0.999
TTCCTTTATG	0.967
GATCTCAAAT	1.02
TCCCGGCTGA	1.08
CCTGGGCTAG	1.08
ATGATTCTAT	0.964

Sequence	switch fluorescence ratio
CAAGAATAGG	0.969
CCTCACGCCT	3.53
CTTCTAGT	0.978
CAGGGTGTA	1.04
TATAGAACAC	1.06
AAAGATTGAT	0.972
GGTGACAGGA	0.978
ACATCGGGGA	1.07
ATAGTAGTAT	0.941
GTGAGAGTTT	1.04
CTAGCTGTTT	1.02
CGCCAAACCT	2.53
TTCCCTACGT	1.35
GTGGTGCCTC	0.991
GGATCCAGAA	0.943
ACTGAGATGG	1.03
GACCACTGTG	1.13
GGGCTTGGAT	0.984
CCTAATCGAG	1.04
CTATTAAATT	0.999
AGTGCTCGGA	1.02
GGAGATACGG	1.01
GCTGTTAAAT	0.974

Sequence	switch fluorescence ratio
GAGTACGAAA	1.01
AGAGTCTTCT	0.972
AGGTTAGGAC	0.997
CGGACAGTTA	1.1
GGTCGCCTAA	1.03
CCCGTTAAAG	1.01
AGTGGTAATC	1.01
CATGGGACTG	1.07
TAACTTTTTC	1.17
TAGGTTCATG	1.01
AACAGGCCTG	0.981
CTGTATGTGC	1.05
AGAGAGTTGC	1.02
AGCGAGGCGT	1.01
TTCTTGAGTT	0.996
CTTTATGTCA	0.962
GAGCGCTCCA	0.973
TAATCCGAGC	1.02
GGTGCTTGCG	1.05
AGGAGGTGTA	1
AACTAGCGAC	1.11
TCAATACGTA	1.11
TGCGCTTAAG	1.04

Sequence	switch fluorescence ratio
TCTAAGGTGG	1.03
ACGGCGGTTT	1.01
GCTATGCCAG	0.991
TACGTATTGT	1.11
ATGCGTAGGC	0.982
CTATGGGGAA	0.988
GGAAGTGAGC	0.984
ATCATCAAAC	0.996
CTCTCTCGGA	1
GCACTGGCTT	1.05
TTATACATTA	1.03
CCCCTCAAAA	1.14
GGGTATGAA	0.991
GGCGGCTGAA	1.01
GAGGTAGCAT	1.06
TCTTTCATAC	2.55
GGAGCCGACC	1.08
ATATGCCCTG	1.03
GAAGAGTATC	0.987
GACCCATAGC	1.05
TGGGGTGGAA	1.03
AGAGCTAATC	1.06
ACTAGGATAT	1.02

Sequence	switch fluorescence ratio
TTACATGCGG	0.992
CATTTGTCGG	0.986
CGACTAAGTT	0.991
CTACAACTAG	1.02
GTGTGACGTT	0.941
CTCTAATGGG	0.96
GTGCAAAATA	1.38
GTTTGGGTTC	1.01
TAAATTCTT	1.01
TTCGGAATCA	1.02
GCTATGCTG	1.22
AAGGATATC	1
GTTGCTGGAC	1.05
CCGCTCGAAA	5.76
ATGGGTTCCG	1.04
ACTTTGAGTT	0.993
TAAGGTCTAT	0.997
TAATGCAG	0.978
CGCGTCCTAG	1.02
